The source of these data is publication PMC6919601, “Identification of Plasmodium dipeptidyl aminopeptidase allosteric inhibitors by high throughput screening” (PLoS ONE, 2019).

Screen size: about 110,000 compounds; about 230 (0.21%) showed an effect of 50% or more. The list shows a part of the results.
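Note: 30 min substrate incubation versus DMSO and 10 µM JCP410 controls.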

For this assay, the target named is DPAP1 (Plasmodium falciparum, UniProt Q8IIJ9). Put plainly: primary screen, percent inhibition; read by cleavage of a fluorogenic dipeptide substrate; higher = more effect of the substance. Details: species or system P. falciparum D10 trophozoite lysates; single well.
Chain of DPAP1 (Q8IIJ9 whole entry, looked up): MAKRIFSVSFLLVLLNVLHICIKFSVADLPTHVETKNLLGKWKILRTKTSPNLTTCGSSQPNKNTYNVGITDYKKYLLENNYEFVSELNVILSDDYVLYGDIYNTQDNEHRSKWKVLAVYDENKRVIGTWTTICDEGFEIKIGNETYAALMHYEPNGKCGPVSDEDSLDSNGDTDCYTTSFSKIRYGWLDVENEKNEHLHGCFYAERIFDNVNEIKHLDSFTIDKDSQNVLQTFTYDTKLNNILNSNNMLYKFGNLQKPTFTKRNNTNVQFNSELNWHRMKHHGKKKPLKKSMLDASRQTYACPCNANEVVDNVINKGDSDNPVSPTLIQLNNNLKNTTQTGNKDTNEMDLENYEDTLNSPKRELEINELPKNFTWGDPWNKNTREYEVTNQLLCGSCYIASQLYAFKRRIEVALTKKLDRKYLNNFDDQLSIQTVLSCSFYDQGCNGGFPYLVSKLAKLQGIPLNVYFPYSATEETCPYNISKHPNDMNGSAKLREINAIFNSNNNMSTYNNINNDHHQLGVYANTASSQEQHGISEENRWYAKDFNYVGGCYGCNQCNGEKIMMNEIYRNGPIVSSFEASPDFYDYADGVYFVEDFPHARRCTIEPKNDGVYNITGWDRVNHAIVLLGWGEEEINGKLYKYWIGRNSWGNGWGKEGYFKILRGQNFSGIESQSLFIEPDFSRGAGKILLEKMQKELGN
Take `COc1ccc(S(=O)(=O)N2CCC(C)CC2)cc1OC`: the “% Inhibition @ 10 uM” value was -4.18%.
`c1ccc2oc(CCCCc3nc4ccccc4o3)nc2c1`: the “% Inhibition @ 10 uM” value worked out at 4.08%.
As to `c1ccc2nc(-c3ccc4c(c3)OCO4)ccc2c1`, the “% Inhibition @ 10 uM” value came out at 0.823%.
Take `COc1cc(OC)c(C2CC(=O)Nc3c2ccc2ccccc32)cc1OC` (centres unmarked): the “% Inhibition @ 10 uM” value came to 3.35%.
As to `COc1ccc(C(=O)C23CN4CN(CN(C4)C2)C3)cc1`, the “% Inhibition @ 10 uM” value is given as -2.21%.
The value for `O=C(CC(c1ccco1)S(=O)(=O)c1ccccc1)c1ccc(Cl)cc1` (centres unmarked) was 2.05%; that for `O=C1CC(c2ccccc2Cl)c2cc3c(cc2N1)OCCO3` (centres unmarked) was -17.9%.
For the compound `CCS(=O)(=O)N1CCCC(C(=O)NCc2ccccc2Cl)C1` (centres unmarked), the “% Inhibition @ 10 uM” value was 3.24%.
For `O=C1C2C(C(=O)N1c1ccc(Cl)c(Cl)c1)C1C=CC2C12CC2` (centres unmarked), the “% Inhibition @ 10 uM” value came out at 5.05%.
With `Cc1ccc(-c2csc(/C(C#N)=C/c3cccnc3)n2)c(C)c1`, the “% Inhibition @ 10 uM” value amounted to 1.38%.
Next, `Clc1cccc(-n2cc(-c3ccccc3)c3c(N4CCC5(CC4)OCCO5)ncnc32)c1`: 2.56%; `Cc1ccnc(NC(=O)C(C)c2ccc(CC(C)C)cc2)n1` (centres unmarked): 0.324%.
Turning to `Cc1cccc(C)c1OCc1nc2c3cnn(-c4ccc(Cl)cc4)c3ncn2n1`, the “% Inhibition @ 10 uM” value was -4.64%.
With `CC(=O)Nc1sc2c(c1CN1CCN(c3ccccn3)CC1)CCCC2`, the “% Inhibition @ 10 uM” value is -5.69%.
The value for `CN1CCC(NCCc2ccccc2)CC1` was -1.81%.
Next, `N#CC(NC(=O)[C@@H](O)CS(=O)(=O)Cc1ccccc1)c1cccs1` (some centres unmarked): -3.49%; `CCOc1ccccc1NC(=O)CN(c1cc(Cl)ccc1C)S(C)(=O)=O`: -10%; `COC(=O)c1c(C)oc2ccc(O)c(CN3CCN(C)CC3)c12`: 0.276%.
As to `COc1cc(CN2CCC(Cc3ccccc3)CC2)cc(Br)c1O`, the “% Inhibition @ 10 uM” value was found to be 4.81%.
For `Cc1ccc(/C=C2/N=C(c3cccc4ccccc34)OC2=O)cc1`, the “% Inhibition @ 10 uM” value came to 8.21%.
Take `Cc1cc(NC(=O)C2CCCCC2)cc(C)c1O`: the “% Inhibition @ 10 uM” value stood at 4.57%.
Turning to `Cc1ccccc1NC(=O)CCS(=O)(=O)c1ccc(Cl)cc1`, the “% Inhibition @ 10 uM” value is -9.4%.
The value for `CCCCn1c(=O)c(C(=O)Nc2ccc(Cl)cc2)c(O)c2ccccc21` was -2.85%.
The value for `CC1CCCCN1CCCNC(=O)C1CCN(S(=O)(=O)N2CCC3(CC2)OCCO3)CC1` (centres unmarked) was 1.97%.
The value for `N#CC1=C(N)OC2=C(C(=O)c3ccccc3C2=O)C1c1ccc(-c2ccccc2)cc1` (centres unmarked) was 4.51%; that for `CC1=CN2C(=NC(C(F)(F)F)(C(F)(F)F)N=C2c2ccco2)C=C1` was -3.53%.
On to `CN(CCNC(=O)C1CCN(c2nnc(-n3cccc3)s2)CC1)C1CCCCC1`, for which the “% Inhibition @ 10 uM” value is -4.04%.
As for `COc1nc(N)nc(N(C)C(=O)c2ccccc2)n1`, the “% Inhibition @ 10 uM” value is -0.0953%.
Regarding `CCN(c1ccccc1)S(=O)(=O)c1ccc(OC)cc1`, the “% Inhibition @ 10 uM” value is listed as -4.03%.
Next, `C=C(C)CNC(=S)Nc1sc2c(c1C(=O)OCC)CCCC2`: 1.05%.
The value for `CCN(CC)CCCNC(=O)c1c(C)oc2ncn(C)c(=O)c12` was 2.74%; that for `CC(C)C[C@H](NC(=O)c1ccc(B(O)O)cc1)C(=O)NCC#N` was -1.82%.
For the compound `CNC(=O)CCCc1nc(-c2ccc(OC)cc2)no1`, the “% Inhibition @ 10 uM” value stood at 0.558%.
The value for `O=C(NC(=O)c1ccc(Cl)cc1)Nc1ccccc1OC(F)F` was 3.3%; that for `O=C(COCc1cc(-c2ccco2)on1)NCc1ccc(F)cc1` was -0.769%.
The value for `COc1cc(/C=C2\SC(N3CCOCC3)=NC2=O)ccc1O` was -5.63%; that for `CCOc1ccc(C2CC(=O)c3c([nH]c(C(=O)OC)c3C)C2)cc1OC` (centres unmarked) was 1.16%.
The value for `NS(=O)(=O)c1ccc(N2CCC(c3ccc(Cl)cc3)=N2)cc1` was 1.38%; that for `CCCCN1C(=O)C2Cc3c([nH]c4ccccc34)C(c3cccc(O)c3)N2C1=O` (centres unmarked) was 7.92%.
Consider `C(CNC1C2CC3CC(C2)CC1C3)CN1CCOCC1` (centres unmarked), for which the “% Inhibition @ 10 uM” value is reported as -4.01%.
As for `CC(C)(C)NC(=O)CN(Cc1c(F)cccc1Cl)S(=O)(=O)c1ccc(Cl)cc1`, the “% Inhibition @ 10 uM” value is on record as -3.45%.
The value for `COc1ccccc1-c1cc(C(=O)Nc2c(C)nn(Cc3ccccc3Cl)c2C)no1` was 10.7%; that for `COc1ccc2nc(NC(=O)C(NS(=O)(=O)c3cccc4nsnc34)C(C)C)sc2c1` (centres unmarked) was 2.93%.
On to `CCOC(=O)C1CCCCN1Cc1ccc(F)cc1F` (centres unmarked), for which the “% Inhibition @ 10 uM” value was 4.67%.
Take `O=C(Cn1ncc2c3ccccc3n(Cc3ccccc3F)c2c1=O)N1CCc2ccccc2C1`: the “% Inhibition @ 10 uM” value is 1.8%.
As to `COc1ccc(NC(=O)c2cc3ccccc3o2)cn1`, the “% Inhibition @ 10 uM” value is on record as -2.63%.
Take `COCCCN1C(=S)NC2c3cccc(OC)c3OC1(C)C2C(=O)N(C)C` (centres unmarked): the “% Inhibition @ 10 uM” value was -2.92%.
In the case of `CCOC(=O)c1c(-c2ccccc2)csc1NC(=O)c1nn(CC)cc1Br`, the “% Inhibition @ 10 uM” value is given as 0.413%.
Next, `CC(C)CS(=O)(=O)C1=NN2C(=N)/C(=C\c3ccco3)C(=O)N=C2S1`: 1.9%; `OCCCNCc1cccn1-c1ccccc1`: -4.61%; `CC(C)(C)c1ccc(C(=O)NCc2cccc3ccccc23)cc1`: -3.48%.
Consider `CC(=O)c1cn(CC(=O)NCc2cccnc2)c2ccccc12`, for which the “% Inhibition @ 10 uM” value is recorded as 0.0289%.
The value for `Clc1ccc(CN2CCN(c3ncccn3)CC2)cc1` was -1.07%.
On to `COc1cc2c(cc1OC)C(c1ccc(Cl)cc1Cl)NCC2` (centres unmarked), for which the “% Inhibition @ 10 uM” value is -0.254%.
Next, `COc1nccnc1NS(=O)(=O)c1ccc(NC(=S)NC(=O)/C=C/c2ccco2)cc1`: 3.47%; `CC1CCC(Nc2nc3c(-c4cccc(F)c4)nnn3c3ccccc23)CC1` (centres unmarked): 3.59%; `CC1=C(C(N)=O)C(c2ccccn2)n2ncnc2N1` (centres unmarked): 3.6%.
For `CC(NC(=O)c1cccnc1)c1cc2c(cc1Cl)OCCO2` (centres unmarked), the “% Inhibition @ 10 uM” value was 0.475%.
Next, `CN(C)c1ccnc(N(Cc2ccccc2)Cc2ccccc2)c1C#N`: 0.878%.
The value for `CCCc1nc2nc(C)c(NC(=O)c3cccc(F)c3)c(O)n2n1` was -2.78%; that for `Cc1ccc(OCCOc2cccc(/C=N/n3cnnc3)c2)cc1` was -1.24%.
The value for `O=C(C1=C(O)C(=O)N(Cc2ccccc2)C1c1ccncc1)c1ccccc1` (centres unmarked) was -2.05%; that for `N#Cc1c(-c2ccco2)cc(-c2cccs2)nc1OCC(N)=O` was 7.22%.
For `COc1ccc(/C=C/C(=O)N2CCCCC2)cc1`, the “% Inhibition @ 10 uM” value is 9.29%.
Next, `COc1ccccc1CNC(=O)c1ccc(C/N=c2/c(N3CCOCC3)c(O)c2=O)cc1`: 4.33%.
